Measurements as given in PubChem BioAssay AID1345083 (National Center for Advancing Translational Sciences (NCATS), 2018).
The campaign covered roughly 94,000 compounds. About 6,200 (6.6%) were called active. The inconclusive results got no clear call from the source; some entries with a clear call stand among them for comparison. Calls come from the whole dose curve; as a rule, active = well fitted inhibition curve with a large enough effect; inconclusive = small, poorly fitted or top-dose-only effect; inactive = flat fitted curve, though single readings scatter. Potencies beside an inconclusive call are fits to weak or partial responses and may not hold up.

experiment: Cytotoxic Profiling in HEK 293 Cell Line of Diverse Libraries Using Quantitative High-Throughput Screening; settings: HEK 293 viability, ATP luminescence (CellTiter-Glo), 48-72 h; series mostly up to 115 µM; note: nearly all actives have a fitted effect of over 60% in size
Outline: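 Cytotoxicity was scored by loss of ATP-coupled luminescence (CellTiter-Glo) in HEK 293 cells. Compound treatment ran 48 or 72 hr at 37 degree Celsius, 5% CO2, 95% humidity.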
Potency is the fitted concentration of half-maximal effect; tags give direction and shape of the fitted curve.

Row | SMILES | Potency
1 | COCCNC(=O)c1cc(-c2cccc(C(F)(F)F)c2)nc2c1cnn2C | inactive
2 | Cc1ccc(C(=O)NC2CCCN(c3nc4ncccc4o3)C2)cc1 (configuration not stated) | inactive
3 | CCCNc1cc(N2CCC(CCC(=O)Nc3cc(C)ccc3C)CC2)ncn1 | inconclusive: 56.2 µM [inhibitor, partial curve, poor fit]
4 | Cn1cccc1CN1CCCC2(C1)C(=NC1CCCCC1)NC(=O)N2c1cc(F)cc(F)c1 (configuration not stated) | inconclusive: 89.1 µM [inhibitor, partial curve, poor fit]
5 | CCc1ccc(NC(=O)C2CCN(C(=O)c3ncn4c3COC(c3ccccc3)C4)CC2)cc1 (configuration not stated) | inconclusive: 79.4 µM [inhibitor, single point]
6 | Cc1nc(N2CCC(NC(=O)Cc3ccccc3C)CC2)cc(C(F)(F)F)n1 | inconclusive: 39.8 µM [inhibitor, full curve, poor fit]
7 | COc1cccc(-c2cc(C(=O)NC3CCC3)c3cnn(C)c3n2)c1 | active: 79.4 µM
8 | O=C(c1ccoc1)N1CCCC(n2cc(-c3nc(-c4ccccc4)no3)nn2)C1 (configuration not stated) | active: 50.1 µM
9 | Cc1cc(C(=O)N2CC[C@H](NC(=O)c3snnc3C)C[C@H]2C(=O)N[C@@H](Cc2cccs2)C(N)=O)n(C)n1 | inactive
10 | O[C@@H]1C[C@@H](c2nc(-c3ccncc3)no2)N(C2CCCCC2)C1 | inactive
11 | COc1cccc(NC(=O)c2c(OC)cc(=O)n3c2CCCC3)c1 | inactive
12 | COc1cc(CNC(=O)[C@@H]2C[C@H](c3ccc(F)cc3)N(Cc3csc(C)n3)C2)cc(OC)c1 | inconclusive: 56.2 µM [inhibitor, partial curve, poor fit]
13 | COc1ccccc1CC(=O)N1C[C@H](c2nc(-c3ccncc3)no2)[C@@H](C)C1 | inconclusive: 89.1 µM [inhibitor, single point]
14 | O=C(Nc1cccc(F)c1)N1CCc2nnc(C3CC3)n2CC1 | inactive
15 | COC(=O)NC1CCCN(c2ccc3nnc(-c4ccccc4)n3n2)C1 (configuration not stated) | inconclusive: 89.1 µM [inhibitor, single point]
16 | COc1ccc(C(=O)NC2CCN(c3cc(-c4cccs4)[nH]n3)CC2)cc1OC | inconclusive: 79.4 µM [inhibitor, partial curve, poor fit]
17 | COc1ccc(C(=O)N2CCC3(CC2)CC(=O)c2ccccc2O3)cc1 | inconclusive: 79.4 µM [inhibitor, partial curve]
18 | CCOc1ccc(C(=O)N2C[C@@H](CO)[C@H](c3nc(C4CC4)no3)C2)cc1 | inconclusive: 89.1 µM [inhibitor, single point]
19 | CC1=NOC2(CCN(Cc3ccc(C(F)(F)F)cc3)C2)C1 (configuration not stated) | inconclusive: 100 µM [inhibitor, partial curve, poor fit]
20 | Cc1nn(C)c(C)c1S(=O)(=O)N1CCC2(CC1)c1[nH]c3ccccc3c1CCN2C | active: 89.1 µM
21 | Cc1cc(C)cc(CN2CCC3(CC2)Cc2ccccc2CNC3=O)c1 | inconclusive: 79.4 µM [inhibitor, partial curve, poor fit]
22 | O=C(NCC1CC1)c1nc2c(o1)CCN(CCc1ccccc1)CC2 | inconclusive: 89.1 µM [inhibitor, partial curve, poor fit]
23 | Cc1ccsc1-c1[nH]nc2ncc(-c3ccnn3C)nc12 | inactive

Row | SMILES | Potency
24 | O=C1CCN(S(=O)(=O)c2ccccc2)CCCC(C(=O)NCCc2ccccn2)CCN1 (configuration not stated) | inactive
25 | COc1cccc(-c2cc(C(=O)NC3CCCCC3)c3cnn(C)c3n2)c1 | inconclusive: 44.7 µM [inhibitor, partial curve]
26 | CCCN1C(=O)Cc2cc(C(=O)N3CCN(c4ccccc4Cl)CC3)ccc21 | inconclusive: 50.1 µM [inhibitor, partial curve, poor fit]
27 | Cc1cn2nnc(C(=O)N3CCC(C(=O)Nc4ccc(C)c(Cl)c4)CC3)c2c(=O)[nH]1 | inactive
28 | CN(C)C(=O)N(C)Cc1cccc(N2CCN([S+](=O)([O-])c3c(Cl)cccc3Cl)CC2)c1F | inconclusive: 50.1 µM [inhibitor, partial curve, poor fit]
29 | CC(C)c1nnc(C2CN(C(=O)CCc3c[nH]c4ccccc34)CC23CCOCC3)o1 (configuration not stated) | inconclusive: 100 µM [inhibitor, single point]
30 | F[C@@H]1CN(Cc2cccnc2)C[C@@H]1OCc1nc2ccc(C(F)(F)F)cc2[nH]1 | inconclusive: 100 µM [inhibitor, partial curve]
31 | Cn1cc(C(=O)N2CCOc3c(O)cc(-c4csc5ccccc45)cc3C2)cn1 | active: 25.1 µM
32 | COc1ccc(C2Cn3cnc(C(=O)N4CCC(C(=O)Nc5cc(F)cc(F)c5)CC4)c3CO2)cc1 (configuration not stated) | inconclusive: 28.2 µM [inhibitor, full curve]
33 | O=C(Cc1ccccc1)N1CCC2(CC1)CC(N(C(=O)c1ccccc1)C1CC1)CCO2 (configuration not stated) | inconclusive: 89.1 µM [inhibitor, single point]
34 | O=C1C(N2CCN(S(=O)(=O)c3ccc(F)cc3F)CC2)CCN1Cc1cccnc1 (configuration not stated) | inconclusive: 79.4 µM [inhibitor, partial curve, poor fit]
35 | O=[S+]([O-])(NC1CCN(Cc2ccc(-c3ccsc3)cc2)C1)c1cccc(C(F)(F)F)c1 (configuration not stated) | active: 28.2 µM
36 | Cc1nn(-c2ccccc2)c2c1C(C)N(C1CCCN([S+](=O)([O-])c3cccc(C(F)(F)F)c3)C1)C2=O (configuration not stated) | inconclusive: 25.1 µM [inhibitor, full curve]
37 | COCC(=O)N1CCCC(C(=O)N(C)CCn2ccnc2C)C1 (configuration not stated) | inactive
38 | Cc1cc2c(c(=O)n(-c3ccc(F)cc3)c(=O)n2CC(=O)Nc2ccccc2F)n1C | inconclusive: 89.1 µM [inhibitor, partial curve, poor fit]
39 | Cc1ccc(C)c(N2CCN(C(=O)CCc3conc3-c3ccccc3F)CC2)c1 | inconclusive: 50.1 µM [inhibitor, partial curve, poor fit]
40 | O=c1cc(N2CCOCC2)oc2c(-c3cccc4[nH]ccc34)nccc12 | inconclusive: 100 µM [inhibitor, partial curve]
41 | CCS(=O)(=O)N1CCCCCCNC(=O)[C@@H]2C[C@@H](C(=O)NCCc3c[nH]c4ccccc34)C[C@@H]21 | active: 35.5 µM
42 | CN(Cc1ccsc1)C1CCCc2ccccc21 (configuration not stated) | inactive
43 | Cn1nccc1C(=O)N1CCOc2ccc(CN3CCc4ccccc4C3)cc2C1 | inconclusive: 89.1 µM [inhibitor, partial curve]
44 | CCn1ccc(C(=O)NC2CCCN(c3cc(-c4ccc(F)cc4)[nH]n3)C2)n1 (configuration not stated) | inactive
45 | CCn1ccnc1CN1CCCC(CNC(=O)c2cccc(OC)c2OC)C1 (configuration not stated) | inactive
46 | CCN1c2cc(C(=O)NCc3ccncc3)ccc2C(=O)N2CCCCCC21 (configuration not stated) | inconclusive: 39.8 µM [inhibitor, full curve, poor fit]

Row | SMILES | Potency
47 | Cc1cc2cc(-c3c(C)noc3C)nc(Nc3ccc(Cl)cc3)c2o1 | inconclusive: 11.2 µM [inhibitor, full curve, poor fit]
48 | O=C1NCCC[C@@H]1NC(=O)[C@H]1CN(C(=O)c2cccc(F)c2)CCN1C(=O)c1cccs1 | inactive
49 | CC(NC(=O)c1noc(-c2ccc(F)cc2)n1)c1ccccc1 (configuration not stated) | inactive
50 | CC(C)C[C@@H]1N[C@H](C(=O)NC2CCCC2)Cc2c[nH]c3cccc1c23 | active: 31.6 µM
51 | O=C(NC1CCN(c2nccc(Nc3ccccc3Cl)n2)CC1)c1ccc(Cl)cc1 | inconclusive: 50.1 µM [inhibitor, partial curve, poor fit]
52 | Cc1ccc(C2=NC3(CCN(C(=O)c4ccoc4)CC3)ON2)cc1 | inactive
53 | Cn1ccc2c(C(=O)NCCc3cnc[nH]3)nc(-c3ccccc3)cc21 | inconclusive: 100 µM [inhibitor, partial curve]
54 | CCc1nn(-c2ccc(F)cc2)c(Oc2ccccc2)c1CCC(=O)N1CCCC1 | active: 44.7 µM
55 | O=C(Cn1ccn2nc(-c3ccccc3)c(CO)c2c1=O)Nc1cc(F)ccc1Cl | inconclusive: 50.1 µM [inhibitor, partial curve, poor fit]
56 | CCn1cc(C(=O)N[C@@H]2CN(Cc3ccccc3)C[C@H]2CN(C)C)cn1 | inactive
57 | CN1CCC(N2CC[C@H]3COC(=O)N3c3cc(F)ccc3C2)CC1 | inactive
58 | COc1ccc(CN2C[C@H]3CN(Cc4cc(OC)c(OC)c(OC)c4)CCN3C2=O)cc1 | inconclusive: 79.4 µM [inhibitor, single point]
59 | O=C1CCN(C(=O)[C@@H](Cc2ccccc2)NC(=O)NCCc2ccccc2)CCOCCN1 | inactive
60 | COc1cccc(NC(=O)C2CC(=O)N(c3n[nH]c4cc(Br)ccc34)C2)c1 (configuration not stated) | inconclusive: 50.1 µM [inhibitor, partial curve, poor fit]
61 | COc1cccc(CN2CCCC(NCc3cc(C)ccc3-n3cccn3)C2)c1 (configuration not stated) | inconclusive: 35.5 µM [inhibitor, partial curve, poor fit]
62 | O=C(c1ccncc1)N1CCC2(CC1)N=C(c1ccccc1)NO2 | inactive
63 | O=C(c1cnccn1)N1CCc2nc(OCC3CC3)ccc2C1 | inactive
64 | O=C(c1ccc(F)cc1)N1CCC2(CN[S+](=O)([O-])c3ccccc3N2)C1 (configuration not stated) | inconclusive: 79.4 µM [inhibitor, single point]
65 | O=C(Cc1c(F)cccc1Cl)N1CCC(c2noc(COc3ccc(F)cc3)n2)CC1 | active: 89.1 µM
66 | O=C1Cc2c(-c3cccc(N4CCOCC4)c3)n[nH]c2CN1Cc1ccccn1 | inactive
67 | O=C1N[C@@H]2CCN(C(=O)c3ccc(-c4ccccc4)cc3)[C@@H]2C(=O)N1c1ccc(F)cc1 | inactive
